Experimental data taken from PubChem BioAssay AID485360 (National Center for Advancing Translational Sciences (NCATS), 2010).
Among all 230,000 compounds or so, about 1,500 (0.65%) were called active. Inconclusive results, whose numbers are uncertain, are shown with a selection of clear calls. Calls follow the shape of the dose curve; as a rule, active = well fitted inhibition curve with a large enough effect; inconclusive = small, poorly fitted or top-dose-only effect; inactive = no such curve, though single readings can be large or run the other way. Where the call is inconclusive, the potency comes from a doubtful curve fit.

Biological target: Lethal(3)malignant brain tumor-like protein 1 (Homo sapiens) (UniProt Q9Y468)
Assay: qHTS Assay for the Inhibitors of L3MBTL1; also: nearly all actives have a fitted effect of over 60% in size
Conditions: AlphaScreen L3MBTL1–H3K9me1 peptide binding; series mostly up to 57.1 µM
Summary of the method: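 L3MBTL1 (50 nM) pre-complexed 30 min with biotinylated H3(1-15)K9me1 peptide (75 nM), then compounds added for 30 min at room temperature; AlphaScreen streptavidin donor/nickel chelate acceptor beads (10 ug/mL final) read after 30 min dark incubation.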
Potency is read from the fitted curve at half-maximal effect; tags tell the direction and shape of the fitted curve.

UniProt Q9Y468, sequence (Q9Y468 whole entry, looked up): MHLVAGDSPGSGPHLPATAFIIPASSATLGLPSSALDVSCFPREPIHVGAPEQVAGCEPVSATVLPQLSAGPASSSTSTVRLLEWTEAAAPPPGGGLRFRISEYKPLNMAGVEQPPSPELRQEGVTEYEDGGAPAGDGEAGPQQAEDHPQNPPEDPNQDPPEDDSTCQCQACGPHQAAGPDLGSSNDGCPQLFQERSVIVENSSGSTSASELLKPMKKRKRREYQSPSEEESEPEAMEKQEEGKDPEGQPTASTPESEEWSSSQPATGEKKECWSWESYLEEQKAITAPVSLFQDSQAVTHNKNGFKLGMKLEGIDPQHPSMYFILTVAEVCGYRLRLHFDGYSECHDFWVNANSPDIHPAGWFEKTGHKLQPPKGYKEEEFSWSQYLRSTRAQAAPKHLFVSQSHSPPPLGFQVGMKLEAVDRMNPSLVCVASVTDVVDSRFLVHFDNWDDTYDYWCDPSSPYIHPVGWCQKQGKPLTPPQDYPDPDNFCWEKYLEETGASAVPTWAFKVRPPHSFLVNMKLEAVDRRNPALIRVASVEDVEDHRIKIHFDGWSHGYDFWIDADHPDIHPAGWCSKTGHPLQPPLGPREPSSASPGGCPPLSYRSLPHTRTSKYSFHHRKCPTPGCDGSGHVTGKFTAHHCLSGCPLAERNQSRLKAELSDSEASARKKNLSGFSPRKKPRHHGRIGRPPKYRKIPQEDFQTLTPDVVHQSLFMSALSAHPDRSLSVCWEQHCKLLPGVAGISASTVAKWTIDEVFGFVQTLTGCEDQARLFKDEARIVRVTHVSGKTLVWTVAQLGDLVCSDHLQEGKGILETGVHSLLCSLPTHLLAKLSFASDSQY

| Compound | Potency |
| --- | --- |
| COc1ccc(N2CCN(S(=O)(=O)c3ccc4c(c3)OCCO4)CC2)cc1 | inconclusive: 31.6 µM [inhibitor, single point] |
| Cn1cncc1C#Cc1ccc2cc(CCO)oc(=O)c2c1 | inactive |
| Cc1cccc(NC(=O)CN(C)S(=O)(=O)c2cccc3nsnc23)c1C | inactive |
| O=C(c1ccc2nc(-c3ccco3)c(-c3ccco3)nc2c1)N1CCN(c2ccccc2)CC1 | inconclusive: 25.1 µM [inhibitor, single point] |
| CCc1ccc(NC(=O)c2cc(-c3ccco3)on2)cc1 | inconclusive: 7.08 µM [inhibitor, single point] |
| O=C(C[C@H]1C[C@H](C(=O)N2CCOCC2)[C@@]2(CCC3CCCC3)c3[nH]c4cc(-c5ccco5)ccc4c3CCN2C1=O)NCc1ccco1 | inactive |
| CCCCn1c(SCC(=O)NC(=O)NCc2ccco2)nc2cc(S(N)(=O)=O)ccc21 | inconclusive: 25.1 µM [inhibitor, single point] |
| Cn1c(=O)oc2cc(S(=O)(=O)NC3CCN(Cc4ccccc4)CC3)ccc21 | inconclusive: 3.55 µM [inhibitor, full curve, poor fit] |
| CNC(=O)CSc1nnnn1-c1ccc2c(c1)OCCO2 | inconclusive: 8.91 µM [inhibitor, partial curve] |
| CC1(C)Cc2c(C#N)c(N3CCN(C(=O)c4ccccc4)CC3)nc(-c3ccco3)c2CS1 | inconclusive: 20 µM [inhibitor, partial curve] |
| O=C(Cn1ccc(NC(=O)OCc2ccccc2)nc1=O)NCc1nc2ccccc2[nH]1 | inactive |
| C=CCNc1nc(Cl)ncc1F | inconclusive: 39.8 µM [inhibitor, single point] |
| Cc1ccc(C2NC(=O)NC(O)(C(F)(F)F)C2C(=O)c2ccccc2)o1 (stereo not given) | inconclusive: 7.08 µM [inhibitor, single point] |
| O=C(COC(=O)c1ccc([N+](=O)[O-])o1)NCc1ccc(F)cc1 | inactive |
| NC(=O)CC(NC(=O)c1cccc(Br)c1)c1ccc(NC2CCCCCCC2)c([N+](=O)[O-])c1 (stereo not given) | inconclusive: 39.8 µM [inhibitor, single point] |
| O=C(Nc1ccc(S(=O)(=O)NCc2ccco2)cc1)C1CCCCC1 | inactive |
| CC(NC(=O)CN1CCN(c2cccc(Cl)c2)CC1)c1ccccc1 (stereo not given) | inactive |
| COc1ccccc1CNCc1ccc(OC)c(OC)c1OC | inactive |
| CCC(=O)n1nc(-c2ccccc2)nc1NCc1ccccc1 | inactive |
| CCOC(=O)c1ccc(NCc2ccc3c(c2)OCO3)cc1 | inactive |
| CC1=C(C(=O)Nc2ccccc2)C(c2ccc[nH]2)n2ncnc2N1 (stereo not given) | active: 1.58 µM |
| O=C(NN1C(=O)/C(=C/c2ccc(O)c(O)c2)SC1=S)c1ccccc1 | inconclusive: 15.8 µM [inhibitor, partial curve] |
| C=C[C@H](Cc1ccccc1)N(Cc1ccccc1)S(=O)(=O)N(Cc1ccccc1)[C@H](C=C)Cc1ccccc1 | inactive |
| O=C(Cn1ncn2c(cc3ccccc32)c1=O)NCc1ccco1 | inconclusive: 39.8 µM [inhibitor, single point] |

| Compound | Potency |
| --- | --- |
| C[N+]1(C)CCC(=C2c3ccccc3CC(=O)c3sccc32)CC1 | inconclusive: 39.8 µM [inhibitor, single point] |
| CCN(CC)c1ccc(NC(=O)c2cncc(Br)c2)cc1 | inactive |
| CCNc1nc(NCC)n2c(SCC(=O)Nc3ccc(C)c(C)c3)nnc2n1 | active: 28.2 µM |
| CCOC(=O)C(C)Sc1nc(-c2ccccn2)ncc1OC (stereo not given) | active: 25.1 µM |
| COc1ccc(CNc2ncc(-c3ccccc3)n2C)c(OC)c1OC | inactive |
| COc1ccc(C(=O)COC(=O)c2ccccc2C(=O)N(C)c2ccccc2)c(OC)c1 | inconclusive: 0.708 µM [inhibitor, full curve, poor fit] |
| CC(C)CN(C(=O)c1cc2ccccc2o1)c1c(N)n(CC(C)C)c(=O)[nH]c1=O | inconclusive: 0.794 µM [inhibitor, single point] |
| C=C1CSc2nc(=O)c3c(C)c(C)sc3n21 | inconclusive: 7.08 µM [inhibitor, single point] |
| CCOC(=O)c1ccc2c(c1)sc(=NC(=O)c1ccco1)n2CCOC | inconclusive: 22.4 µM [inhibitor, partial curve] |
| CCOc1ccc(NC(C)c2cc(Cl)ccc2O)cc1 (stereo not given) | inconclusive: 20 µM [inhibitor, partial curve] |
| N#CCCN1CCCc2cc(N=Nc3ccc(C(F)(F)F)cc3)ccc21 | inconclusive: 31.6 µM [inhibitor, partial curve] |
| CC1CCC2C(=O)N(c3ccc(NC4CCN(Cc5ccccc5)CC4)c([N+](=O)[O-])c3)C(=O)C2C1 (stereo not given) | inconclusive: 15.8 µM [inhibitor, partial curve] |
| CCCCC(c1nnnn1CCOC)N1CCN(Cc2ccccc2)CC1 (stereo not given) | inconclusive: 35.5 µM [inhibitor, single point] |
| O=C1NC(Cc2c[nH]c3ccccc23)C(=O)N1Cc1ccc(CN2C(=O)NC(Cc3c[nH]c4ccccc34)C2=O)cc1 (stereo not given) | inconclusive: 39.8 µM [inhibitor, partial curve, poor fit] |
| O=C(CSc1nccn(-c2ccc3c(c2)OCCO3)c1=O)Nc1ccccc1 | inactive |
| COc1ccc(NC(=O)CSc2nnc(Cc3cccn3C)n2CCc2ccccc2)c(OC)c1 | inactive |
| O=C(N/N=C/c1cccn1-c1cccc(C(=O)O)c1)Nc1ccccc1 | inconclusive: 39.8 µM [inhibitor, single point] |
| COc1cccc(Sc2ccccc2CN(C)C)c1 | inactive |
| CC(C)(C)OC(=O)NCCCCCNC(=O)c1[nH]cnc1C(=O)Nc1nccs1 | active: 28.2 µM |
| COc1cccc(NC(=O)CN(C)S(=O)(=O)c2ccc3c(c2)CCC(=O)N3)c1 | inconclusive: 39.8 µM [inhibitor, single point] |
| O=C(NCCS(=O)(=O)NCc1ccccc1Cl)c1ccccc1 | inactive |
| Cc1cccc(NC(=S)N/N=C2/CCCCc3ccccc32)c1 | inconclusive: 20 µM [inhibitor, partial curve] |
| O=C(NNC(=S)Nc1ccccc1)c1ccccc1[N+](=O)[O-] | inactive |
| CCOCCN1CCN(c2c(CC)c(C)nc3cc(-c4cc(OC)cc(OC)c4)nn23)CC1 | inconclusive: 3.55 µM [inhibitor, full curve] |

| Compound | Potency |
| --- | --- |
| CCOc1cc(/C=C/C(=O)OCC(=O)NCc2ccco2)cc(Cl)c1OC | inconclusive: 25.1 µM [inhibitor, single point] |
| O=C(Nc1ccc(C(=O)O)cc1)/C(=C\c1ccco1)NC(=O)c1ccccc1 | inconclusive: 28.2 µM [inhibitor, single point] |
| Cc1nnc(N/N=C\c2ccc(-c3cccc(C(=O)O)c3)o2)n1N | inconclusive: 17.8 µM [inhibitor, single point] |
| COc1ccc(C)cc1N(CC(=O)N1CCc2ccccc2C1)S(C)(=O)=O | inconclusive: 35.5 µM [inhibitor, single point] |
| CN(CC(=O)Nc1cccc(F)c1)C(=O)c1ccc(NC2CC2)c([N+](=O)[O-])c1 | inactive |
| CCOc1ccccc1-n1c(=O)c2ccccc2c2ccccc2c1=O | inactive |
| COc1cc(C#Cc2c(-c3cncn3C)n(C)c3ccc(-c4ccc(OC)nc4)cc23)cc(OC)c1 | inconclusive: 22.4 µM [inhibitor, partial curve] |
| CC1=C(C)/C(=N\OS(=O)(=O)c2ccc(C)cc2)C=CC1=O | inconclusive: 22.4 µM [inhibitor, partial curve] |
| COc1ccc(NC2c3ccccc3C(=O)N2c2cccnc2)cc1Cl (stereo not given) | inconclusive: 39.8 µM [inhibitor, single point] |
| COc1ccc(C(C)=O)cc1CN1CCCCC1 | inconclusive: 3.98 µM [inhibitor, full curve, poor fit] |
| COc1cccc(-n2c(SCC(=O)Nc3nccs3)nnc2-c2ccoc2C)c1 | inconclusive: 5.62 µM [inhibitor, single point] |
| Cc1cc2ccccc2n1CCNCc1c(C(=O)N2CCOCC2)nc2ccccn12 | inconclusive: 31.6 µM [inhibitor, partial curve] |
| Cc1ccc(C(=O)Nc2nc(-c3ccccn3)cs2)o1 | inconclusive: 31.6 µM [inhibitor, single point] |
| COc1ccccc1/C=C1\Cc2ccccc2C1=O | inconclusive: 0.708 µM [inhibitor, single point] |
| CC(C)CN(C(=O)COC(=O)CCC(=O)c1ccc(Cl)cc1)c1c(N)n(Cc2ccccc2)c(=O)[nH]c1=O | inactive |
| COc1ccc(-n2nnc3c(=O)n(Cc4ccccc4C)cnc32)cc1 | inconclusive: 8.91 µM [inhibitor, single point] |
| CC(=O)c1ccc(NC(=S)NCCc2ccc(S(N)(=O)=O)cc2)cc1 | inactive |
| O=C(N/N=C/c1ccccc1O)c1ccncc1 | inconclusive: 25.1 µM [inhibitor, single point] |
| Cc1ccc(NC(=O)COC(=O)CCc2ccc(S(=O)(=O)N3CCOCC3)cc2)cc1C | inconclusive: 0.794 µM [inhibitor, single point] |
| CCCCNC(=O)COC(=O)c1c2c(nc3ccccc13)/C(=C/c1cccs1)CC2 | inconclusive: 39.8 µM [inhibitor, single point] |
| COc1ccc(N=C2C(=Nc3ccc(OC)cc3)N(c3ccc(OC)cc3)C(=S)N2C(=O)c2ccc(OC)cc2)cc1 | inconclusive: 10 µM [inhibitor, partial curve, poor fit] |
| O=c1[nH]c2cc(Cl)ccc2n1-c1ccccc1 | inconclusive: 5.01 µM [inhibitor, single point] |
